Results taken from a collection of fitness landscapes (doi:10.1016/j.celrep.2020.107928).
Whole data set: some 81,000 sequences, median “one-hybrid fitness for binding NBS DNA” near -0.1, cut for the highest 2% near 0.36. The list shows a part of the results.

B1: Caulobacter ParB omega fusion; a variant is named by its letters at X, in order, B8GW30 (parent)
chain: MESVVVGEPGMSEGRRGLGRGLSALLGEVDAAPAQAPGEQLGGSREAPIEILQRNPDQPRRTFREEDLEDLSNSIREKGVLQPILVRPSPDTAGEYQIVAGERAWRAAQRAGLKTVPIMVRELDDLAVLEIGIIENVQRADLNVLEEALSYKVLMEKFERTQENIAQTIGKSXSHVANXMRLLXLPDEVQSYLVSGELTAXHARAIAAAADPVALAKQIIEGGLSVRETEALARKAPNLSAGKSKGGRPPRVKDTDTQALESDLSSVLGLDVSIDHRGSTGTLTITYATLEQLDDLCNRLTRGI

Variants of: B1
Test: one-hybrid fitness for binding NBS DNA (the Noc-binding site; scaled: cognate 1, non-cognate 0); higher = stronger binding
Conditions: with NBS DNA site
Outline: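 Fitness is the rescaled log change in variant-to-wild-type read ratio, measured by Illumina sequencing of plasmids before and after bacterial one-hybrid selection. The scale puts cognate at 1 and non-cognate at 0. Selection of Caulobacter ParB libraries, four specificity codons randomised, took place in E. coli USO with a HIS3 reporter, site 19 bp from the promoter, over 48 hours at 37°C on M9-minus-histidine with 0.1 mM IPTG and 5 mM 3-AT.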

Variant | one-hybrid fitness for binding NBS DNA
PYLS | ≤ 0.2
VFIR | ≤ 0.2
AWAM | ≤ 0.2
YNMR | ≤ 0.2
DYTC | ≤ 0.2
NITC | ≤ 0.2
AVGE | ≤ 0.2
LYKL | ≤ 0.2
CENT | ≤ 0.2
INEI | ≤ 0.2
WESI | ≤ 0.2
RFQC | ≤ 0.2
LQNR | ≤ 0.2
WSQR | ≤ 0.2
GPKN | ≤ 0.2
REIF | ≤ 0.2
IANP | ≤ 0.2
AYVA | ≤ 0.2
SKKS | ≤ 0.2
LSCL | ≤ 0.2
EARI | ≤ 0.2
LSYW | ≤ 0.2
GATY | ≤ 0.2
PLMS | ≤ 0.2
EIGE | ≤ 0.2
RFQM | ≤ 0.2

Variant | one-hybrid fitness for binding NBS DNA
AFVS | ≤ 0.2
KDYR | ≤ 0.2
DYAL | ≤ 0.2
SAPS | ≤ 0.2
QIVS | ≤ 0.2
LKMK | ≤ 0.2
HCSC | ≤ 0.2
KTIQ | ≤ 0.2
LPPP | ≤ 0.2
DWTT | ≤ 0.2
AHTT | ≤ 0.2
EIAY | ≤ 0.2
PRDH | ≤ 0.2
CAAV | ≤ 0.2
KRLR | 0.456
KEKS | ≤ 0.2
TCLL | ≤ 0.2
RQFS | 0.206
REIG | ≤ 0.2
YPAH | ≤ 0.2
KKTR | 0.27
NFAT | ≤ 0.2
TYEY | ≤ 0.2
NTTP | ≤ 0.2
EMNG | ≤ 0.2
NPAL | ≤ 0.2

Variant | one-hybrid fitness for binding NBS DNA
WPVT | ≤ 0.2
NFAL | ≤ 0.2
VAPD | ≤ 0.2
SYGS | ≤ 0.2
HLNL | ≤ 0.2
FGHS | ≤ 0.2
SMNR | ≤ 0.2
RSRM | ≤ 0.2
LFSV | ≤ 0.2
GISR | ≤ 0.2
QTKF | 0.43
IMET | ≤ 0.2
QGCT | ≤ 0.2
MRMC | ≤ 0.2
VYQG | ≤ 0.2
PHLC | ≤ 0.2
YCKR | ≤ 0.2
SNIT | ≤ 0.2
SCSK | ≤ 0.2
QEEM | ≤ 0.2
TYAN | ≤ 0.2
IQST | ≤ 0.2
IKTR | ≤ 0.2
TVKF | ≤ 0.2
KWDR | ≤ 0.2
DYCR | ≤ 0.2

Variant | one-hybrid fitness for binding NBS DNA
DDTA | ≤ 0.2
THYC | ≤ 0.2
VRHS | ≤ 0.2
VGST | ≤ 0.2
YPWG | ≤ 0.2
FTAD | ≤ 0.2
RFYG | ≤ 0.2
TSHT | ≤ 0.2
ENPG | ≤ 0.2
VPLT | ≤ 0.2
YPVW | ≤ 0.2
QYPD | ≤ 0.2
ELPT | ≤ 0.2
CRSC | ≤ 0.2
DFQR | ≤ 0.2
FMNT | ≤ 0.2
HCPS | ≤ 0.2
CTNR | ≤ 0.2
SLVR | ≤ 0.2
CCLA | ≤ 0.2
QHTR | 0.527
VFRV | ≤ 0.2
YNLC | ≤ 0.2
FMRR | 0.216
QQLV | ≤ 0.2
CYRY | ≤ 0.2

Variant | one-hybrid fitness for binding NBS DNA
HASF | ≤ 0.2
RSTW | ≤ 0.2
TCGA | ≤ 0.2
CRLN | ≤ 0.2
IKSY | ≤ 0.2
NYAI | ≤ 0.2
PGLI | ≤ 0.2
VANL | ≤ 0.2
PRAH | ≤ 0.2
NEGA | ≤ 0.2
LGVC | ≤ 0.2
GAMY | ≤ 0.2
EAIS | ≤ 0.2
LQDR | ≤ 0.2
YLKY | ≤ 0.2
QPGW | ≤ 0.2
QTDY | ≤ 0.2
KMKP | ≤ 0.2
QTWN | ≤ 0.2
WETF | ≤ 0.2
LASN | ≤ 0.2
CFWR | ≤ 0.2
LKIL | ≤ 0.2
AKYY | ≤ 0.2
RMEC | ≤ 0.2
HTMR | ≤ 0.2

Variant | one-hybrid fitness for binding NBS DNA
NIVQ | ≤ 0.2
VQSY | ≤ 0.2
KSLR | ≤ 0.2
GRRI | ≤ 0.2
HRFV | ≤ 0.2
THAC | ≤ 0.2
RFLD | ≤ 0.2
LIFD | ≤ 0.2
PQWS | ≤ 0.2
TQAD | ≤ 0.2
RYPI | ≤ 0.2
KNIG | ≤ 0.2
APLG | ≤ 0.2
ALQD | ≤ 0.2
SRTP | ≤ 0.2
PLSH | ≤ 0.2
PNFG | ≤ 0.2
ERMR | ≤ 0.2
LVRY | ≤ 0.2
RCDI | ≤ 0.2
RYIP | ≤ 0.2
RRKI | 0.607
ETQW | ≤ 0.2
